The source of these data is PubChem BioAssay AID360 (National Center for Advancing Translational Sciences (NCATS), 2006).

Out of some 48,000 compounds screened, about 550 (1.1%) were called active. Another 4% or so got no clear call; they are omitted. Cut-off read from the data, not from the text of the source: active = potency below about 15 µM; inconclusive = mostly about 16 µM to 33 µM; inactive = weaker than that. Some of the results follow.
Potency is the fitted concentration of half-maximal effect.

UniProt P04062, sequence (P04062 whole entry, looked up): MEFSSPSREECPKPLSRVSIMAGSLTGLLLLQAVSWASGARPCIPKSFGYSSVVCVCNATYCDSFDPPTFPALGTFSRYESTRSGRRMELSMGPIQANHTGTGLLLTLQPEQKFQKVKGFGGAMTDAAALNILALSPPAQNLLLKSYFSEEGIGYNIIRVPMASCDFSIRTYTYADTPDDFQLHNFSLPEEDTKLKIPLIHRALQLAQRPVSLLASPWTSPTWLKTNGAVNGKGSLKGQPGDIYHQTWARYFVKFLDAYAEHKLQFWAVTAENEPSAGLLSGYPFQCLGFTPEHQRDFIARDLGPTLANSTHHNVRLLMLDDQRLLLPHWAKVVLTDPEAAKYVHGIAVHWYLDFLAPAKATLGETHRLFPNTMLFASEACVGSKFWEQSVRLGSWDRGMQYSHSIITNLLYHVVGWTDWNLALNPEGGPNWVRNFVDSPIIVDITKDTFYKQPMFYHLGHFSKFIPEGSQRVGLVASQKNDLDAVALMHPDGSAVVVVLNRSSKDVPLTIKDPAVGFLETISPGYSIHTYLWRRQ

The assay deals with Lysosomal acid glucosylceramidase (Homo sapiens) (UniProt P04062). The experiment in a line: Glucocerebrosidase.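 Note: the screen sought inhibitors.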 Particulars: purified enzyme, resorufin glucoside fluorescence (screen aimed at inhibitors), 20 min. The method, boiled down:
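Normal human glucocerebrosidase (0.2 nM final) was assayed with resorufin β-D-glucopyranoside (30 uM final) in 50mM citric acid/KH2PO4, 10mM sodium taurocholate, 0.01% tween-20, pH 5.9. Compounds were titrated; fluorescence (Ex 548, Em 600) read after 20 min at RT.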
As to `CCOC(=O)N1CCN(C(=O)CN(c2ccc3c(c2)OCO3)S(C)(=O)=O)CC1`, the Potency was inactive: > 76.9 µM. On to `Cc1ccc(SCCC(=O)NCC2CCCO2)cc1` (configuration not stated), for which the Potency is inactive: > 76.9 µM. Under `COc1ccc(OC)c(S(=O)(=O)N2CCC(C(=O)N3CCN(Cc4ccccc4)CC3)CC2)c1` stands inactive: > 76.9 µM; under `Cc1nc2ccc(NC(=O)N3CCCCC3)cc2s1`, inactive: > 76.9 µM; under `CCN(CC(=O)Nc1cccc(OC)c1)C(=O)C1CCN(C(=O)Nc2ccccc2)CC1`, inactive: > 76.9 µM.

With `Cc1onc(-c2ccccc2)c1C(=O)N1CCOCC1`, the Potency is inactive: > 76.9 µM. The value for `CCOC(=O)C(NCc1ccc2c(c1)OCO2)(NC(=O)CC)C(F)(F)F` (configuration not stated) was inactive: > 76.9 µM; that for `CC(=O)c1cc(-c2ccccc2)n(CC(=O)N2CCN(C3CCCC3)CC2)c1C` was inactive: > 76.9 µM.

Turning to `Cc1ccc(S(=O)(=O)NCC(C)NS(=O)(=O)c2ccc(C)cc2)cc1` (configuration not stated), the Potency is inactive: > 76.9 µM. As to `Cn1cnnc1Sc1nc2ccccc2nc1NS(=O)(=O)c1ccccc1`, the Potency is inactive: > 76.9 µM.

For the compound `C=CCn1c(Cc2cccs2)nnc1SCC(=O)c1ccc(F)cc1`, the Potency was inactive: > 76.9 µM.

Consider `O=C(NCCCN1CCCC1=O)c1ccc(Cl)c(NS(=O)(=O)c2ccc(F)cc2)c1`, for which the Potency is inactive: > 76.9 µM. For `COc1ccc(OC)c(S(=O)(=O)Nc2ccc(C(N)=O)cc2)c1`, the Potency is inactive: > 76.9 µM. On to `O=C1C2CC=CCC2C(=O)N1c1n[nH]c(Cc2ccccc2)n1` (configuration not stated), for which the Potency was inactive: > 76.9 µM. On to `O=C(NCCN1CCOCC1)c1ccc(CS(=O)(=O)c2ccc(Cl)cc2)o1`, for which the Potency was inactive: > 76.9 µM. As to `Cn1c(COc2ccccc2)nnc1SCC(=O)NCc1ccccc1`, the Potency was inactive: > 76.9 µM. Consider `CCC(c1nnc(SCC(=O)N2CC(=O)Nc3ccccc32)n1Cc1ccccc1)N(C)C` (configuration not stated), for which the Potency is inactive: > 76.9 µM. In the case of `COc1ccc2c(=O)c(N3C(=O)c4ccccc4C3=O)coc2c1`, the Potency was inactive: > 76.9 µM. Under `CC(C)C(=O)Nc1nnn(C)n1` stands inactive: > 76.9 µM. The value for `O=C(CCS(=O)(=O)c1ccc(Br)s1)NCc1ccc2c(c1)OCO2` was inactive: > 76.9 µM. As to `Cc1nn(CCC(=O)O)c2nc(-c3cccnc3)cc(C(F)(F)F)c12`, the Potency is inactive: > 76.9 µM. Regarding `CCOC(=O)C1CCCCN1Cc1ccc(OC)c(OC)c1OC` (configuration not stated), the Potency is inactive: > 76.9 µM. For `Cn1c(=O)cc(SCC(=O)N2CCOCC2)c2ccc(Cl)cc21`, the Potency is inactive: > 76.9 µM.

As to `O=S(=O)(Nc1ncccn1)c1ccc(Nc2ncnc3ccccc23)cc1`, the Potency was inactive: > 76.9 µM. As for `Cc1ccc(-n2c(SCC(=O)Nc3nccs3)nc3c(c2=O)SCC3)cc1`, the Potency was inactive: > 76.9 µM. The value for `Cc1ccc(-c2nnn(CCC(=O)N3CCCCC3C)n2)cc1` (configuration not stated) was inactive: > 76.9 µM; that for `Cc1c(C(=O)NCCCN2CCOCC2)sc2ncnc(N3CCN(c4ccccc4)CC3)c12` was inactive: > 76.9 µM. `CC(=O)N1CCc2cc(S(=O)(=O)NC(CC(C)C)C(=O)Nc3cc(C(=O)O)ccc3C)ccc21` (configuration not stated): the Potency is inactive: > 76.9 µM. With `CCOC(=O)N1CCN(C(=O)Cn2cc3c(n2)CCCC3)CC1`, the Potency was inactive: > 76.9 µM. As for `Cc1ccc(S(=O)(=O)CCC(=O)OCC(=O)Nc2cc(C)on2)cc1`, the Potency is inactive: > 76.9 µM.

`CCSc1nc2c(c(=O)n(C)c(=O)n2C)n1Cc1ccc(Cl)cc1`: the Potency is inactive: > 76.9 µM. For `Cc1ccccc1Cc1c(C)nc2c(C(=O)N3CCN(Cc4ccc5c(c4)OCO5)CC3)cnn2c1C`, the Potency is inactive: > 76.9 µM. Under `CC(=O)Nc1ccc(S(=O)(=O)NCC2CCC(C(=O)N3CCCCCC3)CC2)cc1` (configuration not stated) stands inactive: > 76.9 µM; under `O=C(c1cccnc1NCc1ccccc1)N1CCOCC1`, inactive: > 76.9 µM; under `CCc1nc(SCC(=O)Nc2ccc3c(c2)OCCO3)c2oc3ccccc3c2n1`, inactive: > 76.9 µM. For `O=C1CCCN1c1cc(Cl)ccc1Cl`, the Potency was inactive: > 76.9 µM. Take `CCCCCCOc1ccc(C(CC(=O)O)C(N)=O)cc1` (configuration not stated): the Potency was inactive: > 76.9 µM. As to `O=C(Nc1nccs1)c1cccc(NC(=O)C2CC2)c1`, the Potency is inactive: > 76.9 µM.

`Cn1c(=O)c2cc(S(=O)(=O)N3CCC(c4ccccc4)CC3)ccc2n(C)c1=O`: the Potency was inactive: > 76.9 µM. `CC(C)N(c1ccccc1)c1ccc(NC(=O)C2CCCO2)cc1` (configuration not stated): the Potency is inactive: > 76.9 µM. Consider `Cc1ccc(C(=O)CSc2nnc(COc3cccc(C)c3)o2)cc1`, for which the Potency was inactive: > 76.9 µM.

In the case of `O=C(NC1=NCCS1)c1ccncc1`, the Potency was inactive: > 76.9 µM. Take `COCCNc1ncnc2c1cnn2Cc1ccc(Cl)cc1`: the Potency is inactive: > 76.9 µM. On to `CC1CCOC2(O1)C(=O)N(CN1CCN(c3ccccc3F)CC1)c1ccccc12` (configuration not stated), for which the Potency was inactive: > 76.9 µM. For `O=C(c1ccc(Br)cc1)C1CCc2occc2C1=O` (configuration not stated), the Potency was inactive: > 76.9 µM.

For the compound `Cc1ccc(NC(=O)Cn2nc(C)cc2C)cc1`, the Potency is inactive: > 76.9 µM. Consider `c1ccc(-c2nnc(Cn3c4ccccc4c4nc5ccccc5nc43)o2)cc1`, for which the Potency is inactive: > 76.9 µM.

For `CN(C)C(=O)C12CCC(C)(c3nc4ccccc4nc31)C2(C)C` (configuration not stated), the Potency is inactive: > 76.9 µM. Under `O=C(CCC(=O)c1cccs1)OCc1nnc(-c2ccccc2)o1` stands inactive: > 76.9 µM; under `CC(CN1CCCCC1)OC(=O)c1ccccc1Cl` (configuration not stated), inactive: > 76.9 µM. Consider `Cn1c(CN2CCOCC2)nnc1SCC(=O)NCCc1ccccc1`, for which the Potency was inactive: > 76.9 µM. With `Cc1nc(CN2CCN(C(=O)NC3(c4ccccc4)CC3)CC2)cs1`, the Potency was inactive: > 76.9 µM. Turning to `CNC(=O)C1CC(=O)N(Cc2ccc3c(c2)OCO3)C(=Nc2ccc(F)cc2)S1` (configuration not stated), the Potency was inactive: > 76.9 µM. On to `CC1(C)N=C(/C=N/O)CN1O`, for which the Potency is inactive: > 76.9 µM.

On to `Cc1ccc(C)c(NC(=O)c2nnn(Cc3ccccc3C)c2N)c1`, for which the Potency is inactive: > 76.9 µM. As for `CC(C)(C)S(=O)(=O)c1c(C(=O)O)cccc1C(=O)O`, the Potency is inactive: > 76.9 µM.

For `CCCOc1ccc(/C(O)=C2/C(=O)C(=O)N(c3cc(C)on3)C2c2ccc(C(=O)OC)cc2)cc1` (configuration not stated), the Potency was inactive: > 76.9 µM.
